# About 230 (0.21%) of roughly 110,000 compounds showed an effect of 50% or more. Some of the results follow.
# Target: DPAP1 (Plasmodium falciparum, UniProt Q8IIJ9)
# Experiment: primary screen, percent inhibition; read by cleavage of a fluorogenic dipeptide substrate; higher = more effect of the substance
# Parameters: species or system P. falciparum D10 trophozoite lysates; single well
# 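Also: 30 min substrate incubation versus DMSO and 10 µM JCP410 controls.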
# Sequence of DPAP1 (Q8IIJ9 whole entry, looked up): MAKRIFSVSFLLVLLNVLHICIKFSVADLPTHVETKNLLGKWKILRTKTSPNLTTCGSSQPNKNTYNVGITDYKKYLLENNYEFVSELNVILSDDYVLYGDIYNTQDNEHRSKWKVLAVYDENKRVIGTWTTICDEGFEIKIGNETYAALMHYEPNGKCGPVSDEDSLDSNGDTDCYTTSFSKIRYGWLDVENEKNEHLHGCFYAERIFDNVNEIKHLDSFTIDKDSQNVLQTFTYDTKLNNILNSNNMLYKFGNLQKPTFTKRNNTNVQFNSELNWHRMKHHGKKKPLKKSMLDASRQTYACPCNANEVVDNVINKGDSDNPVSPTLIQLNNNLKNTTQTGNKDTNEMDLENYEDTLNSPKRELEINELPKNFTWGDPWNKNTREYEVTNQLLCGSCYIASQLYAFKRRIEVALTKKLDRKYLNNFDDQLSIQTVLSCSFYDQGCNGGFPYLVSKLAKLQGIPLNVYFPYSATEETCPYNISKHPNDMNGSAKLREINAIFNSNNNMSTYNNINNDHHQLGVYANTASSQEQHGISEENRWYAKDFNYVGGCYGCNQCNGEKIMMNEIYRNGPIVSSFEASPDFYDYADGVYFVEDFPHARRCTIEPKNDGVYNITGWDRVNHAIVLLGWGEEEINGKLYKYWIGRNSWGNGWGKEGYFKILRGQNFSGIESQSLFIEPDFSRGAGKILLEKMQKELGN
row,Structure (SMILES),% Inhibition @ 10 uM [%]
1,COc1ccc(C2=CC(c3cc(OC)c(OC)c(OC)c3)n3ncnc3N2)cc1 (centres unmarked),3.19
2,COC(=O)c1ccc(-c2ccc(/C=C3/C(=N)N4C(SC)=NSC4=NC3=O)o2)cc1,-10.1
3,CCn1cc(NC(=O)NCC2COc3ccccc3O2)c(=O)c2ccc(C)nc21 (centres unmarked),-1.07
4,Cc1cc(OCC(=O)N(C)Cc2ccccc2)cc(C)c1Cl,2.45
5,CC(=O)c1sc(Nc2ccc(C)c(Cl)c2)nc1C,0.5
6,CC(O)CC(C)(C)N1CCOCC1 (centres unmarked),0.937
7,COc1ccc(Br)cc1CN1CCCC(O)C1 (centres unmarked),3
8,COc1ccc2c(c1)C(=O)N(CCc1ccccc1)C(=O)C2,2.03
9,COc1ccc(Cc2nnc(NC(=O)/C(=C/c3ccccc3)c3ccccc3)s2)cc1,2.25
10,O=S(=O)(c1cccc(C(F)(F)F)c1)N1CCN(c2ccccc2F)CC1,-12.8
11,CC1=CC2=NC(=O)/C(=C\c3cccn3Cc3ccccc3)C(=N)N2O1,0.102
12,O=C(CSc1nnnn1-c1ccccc1F)NCc1ccc2c(c1)OCO2,-1.24
13,CSc1nncn1/N=C/c1cc(Cl)ccc1F,-2.6
14,CCOC(=O)N1CCC(N2CCN(c3ccccc3)CC2)CC1,-4.04
15,CN1CCN(C(=O)CCCN2C(=O)CSc3ncccc32)CC1,-4.15
16,Cn1cccc1/C=C1\CC/C(=C\c2cccn2C)C1=O,-0.503
17,COc1ccccc1-c1nnc2sc(C3COc4ccccc4O3)nn12 (centres unmarked),4.47
18,COc1ccc(NC(=O)c2cc3c([nH]c4ccccc43)c(C)n2)cc1,3.83
19,C=CCNC1CC(=O)N(c2ccc(CC)cc2)C1=O (centres unmarked),-12.3
20,CCn1c(SCC(=O)Nc2nc(C)cs2)nc2c(c1=O)SCC2,1.39
21,CN(C)/C=N/C1=NN(c2cccc(C(F)(F)F)c2)CC1,26.5
22,COc1ccccc1C1=NC(=O)CS1,0.878
23,O=C(NCCN1CCOCC1)C1CCN(c2ncnc3c2sc2cccc(F)c23)CC1,-4.15
24,CC(C)C[C@H](NC(=O)OCc1ccccc1Cl)C(=O)NCC#N,-3.04
25,CCOc1ccc(C(=O)CSc2nc3ccccc3o2)cc1[N+](=O)[O-],4.89

row,Structure (SMILES),% Inhibition @ 10 uM [%]
1,Cc1cc(C)n(CC(O)Cn2c3ccccc3c3ccccc32)c(=O)n1 (centres unmarked),80.2
2,FC(F)(F)c1ccccc1CN1CCN(c2ccccn2)CC1,2.23
3,Cc1ccc(S(=O)(=O)N2CCCC2)cc1[N+](=O)[O-],-6.82
4,O=S(=O)(c1ccc(NCc2ccccc2)c(S(=O)(=O)N2CCCCC2)c1)N1CCCCC1,2.44
5,OCCN1CCN(Cc2ccc3c(c2)OCO3)CC1,-2.12
6,O=C1NC(=O)N(Cc2ccccc2)C(=O)/C1=C\c1ccc(SCc2ccco2)o1,2.14
7,CC(Sc1nc(-c2ccccc2)c(-c2ccccc2)[nH]1)C(=O)O (centres unmarked),-3.04
8,CC(C)C[C@H](NC(=O)c1ccc(-c2cnc(N(C)C)s2)cc1)C(=O)NCCN(CC(C)C)CC(C)C,13.8
9,CCC(Cc1ccccc1)NC(=O)C1=C(C)C(=O)OC12CCCCC2 (centres unmarked),-5.58
10,CCN(CC)S(=O)(=O)c1cccc(C(=O)Nc2cc(C)on2)c1,-2.15
11,N#C/C(=C\c1ccccc1[N+](=O)[O-])c1nc(-c2ccc(Cl)c(Cl)c2)cs1,-10.1
12,Cc1nc2ccc3ccccc3c2c(O)c1C/C=C/Cl,-1.32
13,Cc1c(Cl)cccc1NC(=O)c1ccc(OCC(=O)NCc2ccccc2)cc1,-5.81
14,Cc1sc(C2C(C#N)=C(N)OC3=C2C(=O)CC(C)(C)C3)cc1COc1ccccc1Br (centres unmarked),1.43
15,COc1cc(CNCc2ccccc2)cc(Cl)c1OCc1cccs1,4.85
16,O=C(CCNS(=O)(=O)c1cccc2nonc12)NCc1ccccc1Cl,1.26
17,Cc1ccc(S(=O)(=O)N2CCC(C(=O)NCCCN3CCCCCC3)CC2)cc1,0.387
18,COc1ccc(/C(C)=N/OCc2nc3c4c5c(sc4ncn3n2)CCCCC5)cc1OC,-11.3
19,N#CSCC(=O)N1c2ccccc2Sc2ccccc21,10.6
20,COc1nc(N(C)C)nc(-n2cc(-c3ccccc3)nn2)n1,-0.403
21,COc1ccc(NC=C2C(=O)NC(=O)NC2=O)cc1OC,2.44
22,O=C(CN1Cc2ccccc2C1=O)NC1CCCCCC1,-1.62
23,COc1ccc2c(c1OC)C(=O)N(c1ccc(Cl)c(Cl)c1)C2=O,-2.98
24,CCN(CC)S(=O)(=O)c1ccc2ncc(C(=O)NCCCN3CCCCC3C)c(O)c2c1 (centres unmarked),0.955
25,CS(=O)(=O)[C@]1(Cc2ccccc2)[C@@H]2OCCC[C@@H]2S1(=O)=O,7.76

# Source: paper PMC6919601, “Identification of Plasmodium dipeptidyl aminopeptidase allosteric inhibitors by high throughput screening” (PLoS ONE, 2019)
